Measured values reported in the supplement of paper PMC12217912.
Some of the results follow. Sequences were assembled here from the parent chain. Inactive controls read about 0.05.

B1: TEV protease; numbered along this chain (parent)
chain: MGESLFKGPRDYNPISSSICHLTNESDGHTTSLYGIGFGPFIITNKHLFRRNNGTLVVQSLHGVFKVKDTTTLQQHLVDGRDMIIIRMPKDFPPFPQKLKFREPQREERICLVTTNFQTKSMSSMVSDTSCTFPSGDGIFWKHWIQTKDGQCGSPLVSTRDGFIVGIHSASNFTNTNNYFTSVPKNFMELLTNQEAQQWVSGWRLNADSVLWGGHKVFMVKPEEPFQPVKEATQL

Variants of: B1
Assay: raw area under fraction-flipped curve 0-4 h after induction (AUC4h, not background-subtracted), DNA-recorder readout of cleavage of the substrate (dimensionless); higher = more cleavage of the substrate by the protease variant
Settings: temperature: 34 °C; time window: 0-4 h after rhamnose induction
Description: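 In vivo DNA recorder in E. coli TOP10(DE3) ΔrhaA at 34 °C. Each TEVp single-site mutant (parent TEVp 0) is paired with a single-site variant of the 7-mer TEVs (canonical ENLYFQ|S). The substrate sits between flexible linkers in a Bxb1-sfGFP-TEVs-SsrA fusion, so cleavage stabilises Bxb1 and speeds flipping of a recombination array, read by NGS. The value is the raw area under the fraction-flipped curve over 0-4 h after rhamnose induction (AUC4h), with ≥20 reads per time point. It is not background-subtracted; inactive controls average about 0.047.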
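Note: Bxb1 expression induced with 0.2% (w/v) L-rhamnose at OD600 near 0.5, cultures sampled hourly, flipped fraction per protease–substrate barcode pair counted by paired-end Illumina sequencing.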

Variant | area with substrate ENLYFQA | area with substrate ENLYFQG | area with substrate ENLYFQH | area with substrate ENLYFQI | area with substrate ENLYFQP | area with substrate ENLYFQR | area with substrate ENLYFQS | area with substrate ENLYFQV | area with substrate ENLYFQW | area with substrate ENLYFQD
MGESLFKGPRDYNPISSSICHLTNESDGHTTSLYGIGFGPFIITNKHLFRRNNGTLVVQSLHGVFKVKDTTTLQQHLVDGRDMIIIRMPKDFPPFPQKNKFREPQREERICLVTTNFQTKSMSSMVSDTSCTFPSGDGIFWKHWIQTKDGQCGSPLVSTRDGFIVGIHSASNFTNTNNYFTSVPKNFMELLTNQEAQQWVSGWRLNADSVLWGGHKVFMVKPEEPFQPVKEATQL [L99N] | 0.0962 | 0.0799 | 0.0724 | 0.0644 | 0.0587 | 0.0573 | 0.0882 | 0.0854 | 0.0569 | –
MGESLFKGPRDYNPISSSICHLTNESDGHTTSLYGIGFGPFIITNKHLFRRNNGTLVVQSLHGVFKVKDTTTLQQHLVDGRDMIIIRMPKDFPPFPQKWKFREPQREERICLVTTNFQTKSMSSMVSDTSCTFPSGDGIFWKHWIQTKDGQCGSPLVSTRDGFIVGIHSASNFTNTNNYFTSVPKNFMELLTNQEAQQWVSGWRLNADSVLWGGHKVFMVKPEEPFQPVKEATQL [L99W] | 0.0733 | – | 0.0716 | 0.0398 | – | – | 0.0902 | 0.0495 | – | 0.0507
MGESLFKGPRDYNPISSSICHLTNESDGHTTSLYGIGFGPFIITNKHLFRRNNGTLVVQSLHGVFKVKDTTTLQQHLVDGRDMIIIRMPKDFPPFPQKLKIREPQREERICLVTTNFQTKSMSSMVSDTSCTFPSGDGIFWKHWIQTKDGQCGSPLVSTRDGFIVGIHSASNFTNTNNYFTSVPKNFMELLTNQEAQQWVSGWRLNADSVLWGGHKVFMVKPEEPFQPVKEATQL [F101I] | 0.0742 | 0.0849 | – | 0.0562 | 0.0589 | 0.052 | 0.0731 | – | – | –
MGESLFKGPRDYNPISSSICHLTNESDGHTTSLYGIGFGPFIITNKHLFRRNNGTLVVQSLHGVFKVKDTTTLQQHLVDGRDMIIIRMPKDFPPFPQKLKFEEPQREERICLVTTNFQTKSMSSMVSDTSCTFPSGDGIFWKHWIQTKDGQCGSPLVSTRDGFIVGIHSASNFTNTNNYFTSVPKNFMELLTNQEAQQWVSGWRLNADSVLWGGHKVFMVKPEEPFQPVKEATQL [R102E] | 0.141 | – | 0.0327 | 0.0464 | – | – | 0.0554 | – | 0.0397 | –
MGESLFKGPRDYNPISSSICHLTNESDGHTTSLYGIGFGPFIITNKHLFRRNNGTLVVQSLHGVFKVKDTTTLQQHLVDGRDMIIIRMPKDFPPFPQKLKFRIPQREERICLVTTNFQTKSMSSMVSDTSCTFPSGDGIFWKHWIQTKDGQCGSPLVSTRDGFIVGIHSASNFTNTNNYFTSVPKNFMELLTNQEAQQWVSGWRLNADSVLWGGHKVFMVKPEEPFQPVKEATQL [E103I] | 0.089 | 0.0909 | 0.0764 | 0.0582 | – | 0.0588 | 0.0993 | 0.0515 | 0.0623 | –
MGESLFKGPRDYNPISSSICHLTNESDGHTTSLYGIGFGPFIITNKHLFRRNNGTLVVQSLHGVFKVKDTTTLQQHLVDGRDMIIIRMPKDFPPFPQKLKFRSPQREERICLVTTNFQTKSMSSMVSDTSCTFPSGDGIFWKHWIQTKDGQCGSPLVSTRDGFIVGIHSASNFTNTNNYFTSVPKNFMELLTNQEAQQWVSGWRLNADSVLWGGHKVFMVKPEEPFQPVKEATQL [E103S] | 0.0837 | – | 0.101 | – | – | 0.0665 | 0.104 | 0.0634 | 0.0299 | –
MGESLFKGPRDYNPISSSICHLTNESDGHTTSLYGIGFGPFIITNKHLFRRNNGTLVVQSLHGVFKVKDTTTLQQHLVDGRDMIIIRMPKDFPPFPQKLKFREPQREEKICLVTTNFQTKSMSSMVSDTSCTFPSGDGIFWKHWIQTKDGQCGSPLVSTRDGFIVGIHSASNFTNTNNYFTSVPKNFMELLTNQEAQQWVSGWRLNADSVLWGGHKVFMVKPEEPFQPVKEATQL [R109K] | 0.0872 | – | 0.0809 | – | – | 0.0573 | 0.0969 | – | – | –
MGESLFKGPRDYNPISSSICHLTNESDGHTTSLYGIGFGPFIITNKHLFRRNNGTLVVQSLHGVFKVKDTTTLQQHLVDGRDMIIIRMPKDFPPFPQKLKFREPQREEYICLVTTNFQTKSMSSMVSDTSCTFPSGDGIFWKHWIQTKDGQCGSPLVSTRDGFIVGIHSASNFTNTNNYFTSVPKNFMELLTNQEAQQWVSGWRLNADSVLWGGHKVFMVKPEEPFQPVKEATQL [R109Y] | 0.104 | – | – | – | – | – | 0.0953 | 0.0472 | – | –
MGESLFKGPRDYNPISSSICHLTNESDGHTTSLYGIGFGPFIITNKHLFRRNNGTLVVQSLHGVFKVKDTTTLQQHLVDGRDMIIIRMPKDFPPFPQKLKFREPQREERFCLVTTNFQTKSMSSMVSDTSCTFPSGDGIFWKHWIQTKDGQCGSPLVSTRDGFIVGIHSASNFTNTNNYFTSVPKNFMELLTNQEAQQWVSGWRLNADSVLWGGHKVFMVKPEEPFQPVKEATQL [I110F] | 0.0377 | – | 0.071 | 0.0546 | – | 0.0682 | 0.0578 | 0.0661 | 0.104 | –

Same assay, conditions: temperature: 34 °C; time window: 0-4 h after rhamnose induction

Variant | area with substrate ENLYFQL | area with substrate ENLYFQT | area with substrate ENLYFQE | area with substrate ENLYFQF | area with substrate ENLYFQM | area with substrate ENLYFQN | area with substrate ENLYFQC | area with substrate ENLYFQK | area with substrate ENLYFQY
MGESLFKGPRDYNPISSSICHLTNESDGHTTSLYGIGFGPFIITNKHLFRRNNGTLVVQSLHGVFKVKDTTTLQQHLVDGRDMIIIRMPKDFPPFPQKWKFREPQREERICLVTTNFQTKSMSSMVSDTSCTFPSGDGIFWKHWIQTKDGQCGSPLVSTRDGFIVGIHSASNFTNTNNYFTSVPKNFMELLTNQEAQQWVSGWRLNADSVLWGGHKVFMVKPEEPFQPVKEATQL [L99W] | 0.0512 | 0.0754 | – | – | – | – | – | – | –
MGESLFKGPRDYNPISSSICHLTNESDGHTTSLYGIGFGPFIITNKHLFRRNNGTLVVQSLHGVFKVKDTTTLQQHLVDGRDMIIIRMPKDFPPFPQKLKIREPQREERICLVTTNFQTKSMSSMVSDTSCTFPSGDGIFWKHWIQTKDGQCGSPLVSTRDGFIVGIHSASNFTNTNNYFTSVPKNFMELLTNQEAQQWVSGWRLNADSVLWGGHKVFMVKPEEPFQPVKEATQL [F101I] | 0.0521 | 0.0643 | 0.0598 | 0.0681 | 0.0719 | 0.0026 | – | – | –
MGESLFKGPRDYNPISSSICHLTNESDGHTTSLYGIGFGPFIITNKHLFRRNNGTLVVQSLHGVFKVKDTTTLQQHLVDGRDMIIIRMPKDFPPFPQKLKFEEPQREERICLVTTNFQTKSMSSMVSDTSCTFPSGDGIFWKHWIQTKDGQCGSPLVSTRDGFIVGIHSASNFTNTNNYFTSVPKNFMELLTNQEAQQWVSGWRLNADSVLWGGHKVFMVKPEEPFQPVKEATQL [R102E] | 0.0748 | – | – | – | – | 0.0398 | – | – | –
MGESLFKGPRDYNPISSSICHLTNESDGHTTSLYGIGFGPFIITNKHLFRRNNGTLVVQSLHGVFKVKDTTTLQQHLVDGRDMIIIRMPKDFPPFPQKLKFRIPQREERICLVTTNFQTKSMSSMVSDTSCTFPSGDGIFWKHWIQTKDGQCGSPLVSTRDGFIVGIHSASNFTNTNNYFTSVPKNFMELLTNQEAQQWVSGWRLNADSVLWGGHKVFMVKPEEPFQPVKEATQL [E103I] | 0.0604 | 0.0646 | – | – | 0.0769 | 0.0795 | 0.117 | 0.0695 | 0.0658
MGESLFKGPRDYNPISSSICHLTNESDGHTTSLYGIGFGPFIITNKHLFRRNNGTLVVQSLHGVFKVKDTTTLQQHLVDGRDMIIIRMPKDFPPFPQKLKFRSPQREERICLVTTNFQTKSMSSMVSDTSCTFPSGDGIFWKHWIQTKDGQCGSPLVSTRDGFIVGIHSASNFTNTNNYFTSVPKNFMELLTNQEAQQWVSGWRLNADSVLWGGHKVFMVKPEEPFQPVKEATQL [E103S] | – | 0.0684 | – | – | – | – | – | 0.0748 | 0.0798
MGESLFKGPRDYNPISSSICHLTNESDGHTTSLYGIGFGPFIITNKHLFRRNNGTLVVQSLHGVFKVKDTTTLQQHLVDGRDMIIIRMPKDFPPFPQKLKFREPQREEKICLVTTNFQTKSMSSMVSDTSCTFPSGDGIFWKHWIQTKDGQCGSPLVSTRDGFIVGIHSASNFTNTNNYFTSVPKNFMELLTNQEAQQWVSGWRLNADSVLWGGHKVFMVKPEEPFQPVKEATQL [R109K] | 0.063 | 0.0747 | – | – | – | – | – | – | 0.086
MGESLFKGPRDYNPISSSICHLTNESDGHTTSLYGIGFGPFIITNKHLFRRNNGTLVVQSLHGVFKVKDTTTLQQHLVDGRDMIIIRMPKDFPPFPQKLKFREPQREEYICLVTTNFQTKSMSSMVSDTSCTFPSGDGIFWKHWIQTKDGQCGSPLVSTRDGFIVGIHSASNFTNTNNYFTSVPKNFMELLTNQEAQQWVSGWRLNADSVLWGGHKVFMVKPEEPFQPVKEATQL [R109Y] | – | 0.0455 | – | – | 0.0798 | – | – | – | –
MGESLFKGPRDYNPISSSICHLTNESDGHTTSLYGIGFGPFIITNKHLFRRNNGTLVVQSLHGVFKVKDTTTLQQHLVDGRDMIIIRMPKDFPPFPQKLKFREPQREERFCLVTTNFQTKSMSSMVSDTSCTFPSGDGIFWKHWIQTKDGQCGSPLVSTRDGFIVGIHSASNFTNTNNYFTSVPKNFMELLTNQEAQQWVSGWRLNADSVLWGGHKVFMVKPEEPFQPVKEATQL [I110F] | 0.0463 | 0.0571 | – | 0.0443 | 0.0584 | 0.0613 | 0.067 | 0.0536 | 0.0555
